Results from PubChem BioAssay AID1347417 (National Center for Advancing Translational Sciences (NCATS), 2020).
About 5,300 (4.4%) of roughly 120,000 compounds were called active. The shares of active, inactive and inconclusive entries below differ from those in the screen. Calls come from the whole dose curve; as a rule, active = well fitted inhibition curve with a large enough effect; inconclusive = small, poorly fitted or top-dose-only effect; inactive = no such curve, though single readings can be large or run the other way. Potencies beside an inconclusive call are fits to weak or partial responses and may not hold up. Where a structure was tested more than once in an assay, its records may differ in their call.

test: qHTS Primary assay for Inhibitors of Plasmodium falciparum Dd2 growth in vitro; note: nearly all actives have a fitted effect of over 65% in size; details: P. falciparum Dd2 growth, SYBR Green, 72 h; series mostly up to 28.9 µM
Outline: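 Infected erythrocytes (Dd2, 0.3% parasitemia, 2.5% hematocrit final) are added to compound in RPMI-1640/Albumax II medium, grown 72 h at 37C in low oxygen, then lysed with saponin/Triton-X containing SYBR Green and read by fluorescence.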
Potency is the fitted concentration of half-maximal effect; tags give direction and shape of the fitted curve.

Compound	Potency
CN(C)c1nc(-c2ccncc2)nc2c1CCN(C(=O)c1cc(=O)[nH]c(=O)[nH]1)C2	inactive
CC(C)c1ccc(CN2CCCC3(CCN(c4ncccc4C(N)=O)C3)C2)cc1 (stereo unspecified)	inconclusive: 1.78 µM [inhibitor, partial curve, poor fit]
CCN(C(=O)c1cc(S(=O)(=O)N2CCc3ccccc32)cn1C)c1cccc(C)c1	inconclusive: 10 µM [inhibitor, single point]
CN(C)C(=O)c1cccnc1OC1CCN(C(=O)c2cccc(F)c2)C1 (stereo unspecified)	inactive
CC1=C(C(N)=O)C(c2ccc(F)cc2)n2nc(-c3ccc(N(C)C)cc3)nc2N1 (stereo unspecified)	active: 10 µM
COCCc1noc(-c2nnn3c2COC(c2ccc(OC)cc2)C3)n1 (stereo unspecified)	inactive
COc1ccccc1Cn1c(-c2cccc(Cl)c2)nc(C)c(CCO)c1=O	inconclusive: 14.1 µM [inhibitor, partial curve]
CCOc1ccc(C(=O)N2C[C@@H](COC)[C@H](C(N)=O)C2)cc1	inactive
O=C(c1nc(-c2ccc(Cl)cc2Cl)c2ccccn12)N1CCOCC1	inconclusive: 8.91 µM [inhibitor, single point]
CC(NC(=O)CCc1ccccc1)C(=O)N1CCN(c2ccccn2)CC1 (stereo unspecified)	inactive
COCCN1CCCCCC(O)c2cc(C(=O)NCCCN3CCCc4ccccc43)ccc21 (stereo unspecified)	inactive
CN(C)C(=O)c1ccnc(-c2nnc3ccc(Nc4ccc(F)c(Cl)c4)nn23)c1	inconclusive: 11.2 µM [inhibitor, single point]
N#Cc1cccc(CN[C@@H]2CO[C@H](CNC(=O)c3cccs3)[C@H]2O)c1	inactive
COc1ccc(CNC(=O)c2cc(-c3ccc(C)c(C)c3)n[nH]2)cc1	inconclusive: 11.2 µM [inhibitor, partial curve, poor fit]
N#Cc1ccc(CN2CCC(c3nc4ccncc4[nH]3)C2)cc1 (stereo unspecified)	active: 10 µM
Cc1csc(NC(=O)c2ccc3c(c2)OCC(=O)N(C)C3)n1	inactive
COc1ccc(C(=O)N2CCC3(CC2)CC(=O)c2ccc(Cl)cc2O3)cc1	inconclusive: 12.6 µM [inhibitor, single point]
Cc1cc2[nH]c(=O)c(=O)[nH]c2cc1S(=O)(=O)N1CCN(c2cccc(C)c2C)CC1	active: 7.94 µM
OC[C@H]1CCN(Cc2ccc(-c3cccc(Cl)c3Cl)o2)C[C@@H]1O	inconclusive: 0.316 µM [inhibitor, full curve, poor fit]
COc1ccccc1N1CCN(c2nc3c(S(=O)(=O)c4ccc(C)c(C)c4)nnn3c3ccc(Cl)cc23)CC1	inconclusive: 1.58 µM [inhibitor, partial curve, poor fit]
CCN(CCCNC(=O)c1nn(-c2ccc(OC)c(Cl)c2)c(=O)c2c1c1ccccc1n2C)c1cccc(C)c1	inconclusive: 1.12 µM [inhibitor, full curve, poor fit]
COc1cc2c(cc1OC)C(C[C@H]1CN(C(=O)Nc3cccc(C(C)=O)c3)CC[C@H]1CC(=O)O)=NCC2	inactive

Compound	Potency
COc1cc(NC(=O)N2CCCC(Cn3cnc4cccnc43)C2)cc(OC)c1 (stereo unspecified)	inactive
CCn1ccnc1CN(C)C(=O)c1cc(-c2cnc(N)nc2)nc2c(C)cccc12	inconclusive: 17.8 µM [inhibitor, single point]
C=CCCC(CN1CCCOCC1)Oc1ncc(C)c(N(C)C)n1 (stereo unspecified)	inconclusive: 2.51 µM [inhibitor, single point]
COc1ccc(OC)c(C2C(C(=O)Nc3ccccc3OC)=C(C)Nc3c(C(=O)Nc4ccc(F)cc4)cnn32)c1 (stereo unspecified)	inconclusive: 17.8 µM [inhibitor, single point]
COc1ccccc1CC(=O)Nc1ccc2ncnc(N3CCCC3)c2c1	inconclusive: 17.8 µM [inhibitor, single point]
O=C(Nc1cc(Cl)cc(Cl)c1)c1cc(S(=O)(=O)N2CCc3ccccc3C2)ccc1F	inconclusive: 17.8 µM [inhibitor, single point]
CCNC(=O)c1ccc2nc(Cc3ccccc3)oc2c1	inconclusive: 8.91 µM [inhibitor, single point]
O=C(CN1CCCn2nc(CO)cc2C1)NCCc1ccccc1	inactive
COc1cc2[nH]c(=O)n(CCCCCC(=O)NCCc3ccccc3)c(=O)c2cc1OC	inconclusive: 11.2 µM [inhibitor, single point]
CCc1cnc(C)nc1-c1cc(NCc2ccccn2)nc2[nH]ccc12	inconclusive: 7.94 µM [inhibitor, partial curve, poor fit]
O=C(Nc1c(C(=O)Nc2cccc(F)c2)oc2ccccc12)c1cc2ccccc2o1	inconclusive: 11.2 µM [inhibitor, single point]
CCN1Cc2nc(OC)c(CNC(=O)C(C)n3cc(C)cn3)cc2C1=O (stereo unspecified)	inconclusive: 0.501 µM [inhibitor, full curve, poor fit]
CC(C)Nc1ncnc2c1CN(C1CCNC1)C(=O)CN2C (stereo unspecified)	inactive
COCCNC(=O)[C@H]1C[C@H](Oc2ccccc2)CN1Cc1ccc(C)o1	inconclusive: 17.8 µM [inhibitor, single point]
Cc1nc(-c2ccc(F)cc2)n(CC(=O)NCc2ccc(F)cc2)c(=O)c1CCO	inactive
COc1ccc(NC(=O)c2ccc3c(c2)N(S(C)(=O)=O)CC3)cc1Cl	inconclusive: 17.8 µM [inhibitor, single point]
N#Cc1ccccc1Cn1c(=O)n(Cc2ccc(C(=O)NC3CCN(Cc4ccccc4)CC3)cc2)c(=O)c2ccccc21	inconclusive: 1 µM [inhibitor, single point]
CCOc1ccc(/C=C/c2nc(C#N)c(Nc3ccc(OC)cc3)o2)cc1	inconclusive: 12.6 µM [inhibitor, single point]
CCN1C(=O)C(CC(=O)NC2CCCCC2)Sc2ncccc21 (stereo unspecified)	inactive
Cc1cc(C)nc(N2CCN(C(=O)C3CC(=O)N(CC(C)C)C3)CC2)n1 (stereo unspecified)	inactive
COc1cccc(CN2Cc3nc(-c4ccncc4)ccc3OCC2=O)c1	inactive
Cc1ccc(-c2nc3ccc(Cl)cn3c2Nc2ccc3c(c2)OCCO3)s1	inactive

Compound	Potency
Cc1ccc(NC(=O)Cn2c(-c3cnccn3)nc(C)c(C)c2=O)cc1Cl	inconclusive: 5.01 µM [inhibitor, single point]
O=C(Cn1nc2c(cc1=O)CCCCC2)NC1CCN(C(=O)c2cc3ccccc3[nH]2)CC1	inconclusive: 20 µM [inhibitor, single point]
Cc1ccccc1-c1[nH]nc2ncc(-c3ccccc3)nc12	active: 3.98 µM
COc1ccc(CCN2Cc3cc(NC(=O)c4ccccc4)ccc3OC(C)C2=O)cc1 (stereo unspecified)	inconclusive: 1.78 µM [inhibitor, partial curve, poor fit]
COc1cccc(C2c3c(-c4ccccc4O)n[nH]c3C(=O)N2CCc2ccc(OC)c(OC)c2)c1 (stereo unspecified)	inconclusive: 12.6 µM [inhibitor, single point]
CC1=C(C(=O)Nc2ccc(C)cc2)C(c2ccc(Cl)cc2)n2nnnc2N1 (stereo unspecified)	inactive
COc1ccc(-c2noc([C@@H]3C[C@@H](O)CN3Cc3cccc(C#N)c3)n2)cc1	inconclusive: 15.8 µM [inhibitor, single point]
COc1ccc(C2(C(=O)N3CCCC(Cn4c(C)nc5cccnc54)C3)CCCCC2)cc1 (stereo unspecified)	inconclusive: 3.98 µM [inhibitor, single point]
COc1ccc(C(=O)N2CCCC3(C2)NC(=O)N(Cc2ccccc2)C3=O)cc1 (stereo unspecified)	inactive
CCc1cccc(N2C(=O)CS(=O)(=O)C23C(=O)N(Cc2ccc(F)cc2)c2ccc(C)cc23)c1 (stereo unspecified)	inconclusive: 17.8 µM [inhibitor, single point]
CC1(C)C(=O)N(Cc2ccc(O)cc2)[C@H]2CN(CCCc3ccccc3)C[C@H]2[S+]1(=O)[O-]	inconclusive: 8.91 µM [inhibitor, partial curve, poor fit]
O=C(Nc1cccc(-c2ccc(F)cc2)c1)C1CCCN(C(=O)c2cccnc2)C1 (stereo unspecified)	inconclusive: 10 µM [inhibitor, single point]
c1ccc2c(c1)CCN2C1CN(Cc2ccsc2)C1	inconclusive: 3.16 µM [inhibitor, partial curve, poor fit]
CCN1CCCCC12Cc1ccccc1CN(C(=O)Cc1ccc(O)cc1)C2 (stereo unspecified)	inconclusive: 3.55 µM [inhibitor, partial curve, poor fit]
Cc1ccc2oc3c(c(=O)c2c1)C(c1cccc(O)c1)N(Cc1ccccc1Cl)C3=O (stereo unspecified)	inconclusive: 12.6 µM [inhibitor, partial curve, poor fit]
COc1cccc(NC(=O)C2CCCN2S(=O)(=O)c2ccc3c(c2)C(C)(C)C(=O)N3C)c1 (stereo unspecified)	inconclusive: 11.2 µM [inhibitor, single point]
COc1ccc(C)cc1Nc1nc(-c2ccc(OC)c(OC)c2)no1	inconclusive: 12.6 µM [inhibitor, single point]
Cc1ccc(-n2c(SCC(=O)Nc3cccc(F)c3)nc3c(oc4ccccc43)c2=O)cc1C	inconclusive: 17.8 µM [inhibitor, single point]
O=C(NCc1nnc2c(-c3nc(C4CC4)no3)cccn12)c1cccc(F)c1	inactive
CCOC(=O)c1cc(-c2ccccc2)n(-c2cccc(C(=O)N(CC)c3ccccc3)c2)c1C	inactive
COc1ccc(/C=C/CN2CC(=O)N(c3ccccc3C#N)CC2C)cc1 (stereo unspecified)	inconclusive: 20 µM [inhibitor, single point]
CC(C)NC(=O)[C@@H]1C[C@@H](NC(=O)c2cnc3c(O)cccn3c2=O)CN1C	inconclusive: 17.8 µM [inhibitor, single point]
